The assay addresses indoleamine 2, 3-dioxygenase (IDO1) (Homo sapiens, UniProt P14902). Kind of assay: IDO1 PBMC RapidFire MS Assay (kynurenine by mass spectrometry). Particulars: human PBMC stimulated with IFN-γ and LPS, 2 days; recorded as pIC50; read-out: IDO1 PBMC PXC50 (converted). The format is cell-based. The protocol:
IDO1 PBMC RapidFire MS Assay
Compounds of the present invention were tested via high-throughput cellular assays utilizing detection of kynurenine via mass spectrometry and cytotoxicity as end-points. […] Compounds with IDO1 inhibitory properties decreased the amount of kynurenine produced by the cells via the tryptophan catabolic pathway. Cellular toxicity due to the effect of compound treatment was measured using CellTiter-Glo® reagent (CTG) (Promega Corporation, Madison, Wis.), which is based on luminescent detection of ATP, an indicator of metabolically active cells.
In preparation for the assays, test compounds were serially diluted 3-fold in DMSO from a typical top concentration of 1 mM or 5 mM and plated at 0.5 μL in 384-well, polystyrene, clear bottom, tissue culture treated plates with lids (Greiner Bio-One, Kremsmünster, Austria) to generate 11-point dose response curves. Low control wells (0% kynurenine or 100% cytotoxicity) contained either 0.5 μL of DMSO in the presence of unstimulated (−IFN-γ/−LPS) PBMCs for the mass spectrometry assay or 0.5 μL of DMSO in the absence of cells for the cytotoxicity assay, and high control wells (100% kynurenine or 0% cytotoxicity) contained 0.5 μL of DMSO in the presence of stimulated (+IFN-γ/+LPS) PBMCs for both the mass spectrometry and cytotoxicity assays.
Frozen stocks of PBMCs were washed and recovered in RPMI 1640 medium (Thermo Fisher Scientific, Inc., Waltham, Mass.) supplemented with 10% v/v heat-inactivated fetal bovine serum (FBS) (Thermo Fisher Scientific, Inc., Waltham, Mass.), and 1× penicillin-streptomycin antibiotic solution (Thermo Fisher Scientific, Inc., Waltham, Mass.). The cells were diluted to 1,000,000 cells/mL in the supplemented RPMI 1640 medium. 50 μL of either the cell suspension, for the mass spectrometry assay, or medium alone, for the cytotoxicity assay, were added to the low control wells, on the previously prepared 384-well compound plates, resulting in 50,000 cells/well or 0 cells/well respectively. IFN-γ and LPS were added to the remaining cell suspension at final concentrations of 100 ng/ml and 50 ng/ml respectively, and 50 μL of the stimulated cells were added to all remaining wells on the 384-well compound plates. The plates, with lids, were then placed in a 37° C., 5% CO2 humidified incubator for 2 days.
Following incubation, the 384-well plates were removed from the incubator and allowed to equilibrate to room temperature for 30 minutes. For the cytotoxicity assay, CellTiter-Glo® was prepared according to the manufacturer's instructions, and 40 μL were added to each plate well. After a twenty minute incubation at room temperature, luminescence was read on an EnVision® Multilabel Reader (PerkinElmer Inc., Waltham, Mass.). For the mass spectrometry assay, 10 μL of supernatant from each well of the compound-treated plates were added to 40 μL of acetonitrile, containing 10 μM of an internal standard for normalization, in 384-well, polypropylene, V-bottom plates (Greiner Bio-One, Kremsmünster, Austria) to extract the organic analytes. Following centrifugation at 2000 rpm for 10 minutes, 10 μL from each well of the acetonitrile extraction plates were added to 90 μL of sterile, distilled H2O in 384-well, polypropylene, V-bottom plates for analysis of kynurenine and the internal standard on the RapidFire 300 (Agilent Technologies, Santa Clara, Calif.) and 4000 QTRAP MS (SCIEX, Framingham, Mass.). MS data were integrated using Agilent Technologies' RapidFire Integrator software, and data were normalized for analysis as a ratio of kynurenine to the internal standard.

Data on twelve compounds can be found in patent publication US10787442B2, “Modulators of indoleamine 2,3-dioxygenase” (GLAXOSMITHKLINE INTELLECTUAL PROPERTY DEVELOPMENT LIMITED, priority 2016, dated 2020).

Sequence of UniProt P14902 (P14902 whole entry): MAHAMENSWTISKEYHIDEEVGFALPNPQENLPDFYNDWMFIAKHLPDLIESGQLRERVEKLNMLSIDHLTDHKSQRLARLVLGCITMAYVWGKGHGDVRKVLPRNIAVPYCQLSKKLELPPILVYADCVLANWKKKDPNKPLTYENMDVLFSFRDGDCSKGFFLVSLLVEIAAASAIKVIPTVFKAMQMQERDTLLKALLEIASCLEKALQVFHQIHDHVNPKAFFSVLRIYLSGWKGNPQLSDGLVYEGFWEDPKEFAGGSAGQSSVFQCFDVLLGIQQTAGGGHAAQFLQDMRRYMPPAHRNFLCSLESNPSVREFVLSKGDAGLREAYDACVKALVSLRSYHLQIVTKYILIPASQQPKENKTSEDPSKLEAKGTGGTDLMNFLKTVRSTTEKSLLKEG

With `COC(=O)c1c[nH]c(Nc2cc([C@H](C)CC(=O)O)cnc2N(CC(C)C)C2CCOCC2)n1` [Example 50, (3R)-3-(5-{[4-(methoxycarbonyl)-1H-imidazol-2-yl]amino}-6-[(2-methylpropyl)(oxan-4-yl)amino]pyridin-3-yl)butanoic acid], the IC50 was 0.158 µM. To `CC(C)CN(CC(C)C)c1ncc([C@H](C)CC(=O)O)cc1Nc1nnc(C(F)(F)F)s1` [Example 51, (3R)-3-{6-[bis(2-methylpropyl)amino]-5-{[5-(trifluoromethyl)-1,3,4-thiadiazol-2-yl]amino}pyridin-3-yl}butanoic acid] belongs 0.0398 µM. To `CC(C)CN(c1ncc([C@H](C)CC(=O)O)cc1Nc1ccc(C(F)(F)F)cn1)C1CCOCC1` [Example 52, (3R)-3-{6-[(2-methylpropyl)(oxan-4-yl)amino]-5-{[5-(trifluoromethyl)pyridin-2-yl]amino}pyridin-3-yl}butanoic acid] belongs 0.02 µM; to `COC1CCC(N(CC(C)C)c2ncc(C(C)CC(=O)O)cc2Nc2ccc(C#N)cn2)CC1` (stereo not drawn) [Example 53, (3RS)-3-{5-[(5-cyanopyridin-2-yl)amino]-6-[(2-methylpropyl)[(1rs&,4rs&)-4-methoxycyclohexyl]amino]pyridin-3-yl}butanoic acid], 0.0398 µM; to `CC(C)CN(CC(C)C)c1ncc([C@H](C)CC(=O)O)cc1Nc1nc(C(C)C)ns1` [Example 54, (3R)-3-{6-[bis(2-methylpropyl)amino]-5-{[3-(propan-2-yl)-1,2,4-thiadiazol-5-yl]amino}pyridin-3-yl}butanoic acid], 0.0631 µM. The same measure for `Cc1ccc(CC(=O)Nc2cc([C@H](C)CC(=O)O)cnc2N(CC(C)C)C2CC3(C2)CN(C(=O)OC(C)(C)C)C3)cc1` [Example 55, (3R)-3-[6-({2-[(tert-butoxy)carbonyl]-2-azaspiro[3.3]heptan-6-yl}(2-methylpropyl)amino)-5-[2-(4-methylphenyl)acetamido]pyridin-3-yl]butanoic acid]: 2 µM; for `COCc1nsc(Nc2cc([C@H](C)CC(=O)O)cnc2N(CC(C)C)C2CCOCC2)n1` [Example 56, (3R)-3-(5-{[3-(methoxymethyl)-1,2,4-thiadiazol-5-yl]amino}-6-[(2-methylpropyl)(oxan-4-yl)amino]pyridin-3-yl)butanoic acid]: 0.1 µM; for `CC(C)CN(c1ncc([C@H](C)CC(=O)O)cc1Nc1ccc(C#N)cn1)C1CCOCC1` [Example 57, (3R)-3-{5-[(5-cyanopyridin-2-yl)amino]-6-[(2-methylpropyl)(oxan-4-yl)amino]pyridin-3-yl}butanoic acid]: 0.0251 µM. On to `COCc1ccc(Nc2cc([C@H](C)CC(=O)O)cnc2N(CC(C)C)[C@H]2CC[C@@H](OC)CC2)nc1` [Example 58, (3R)-3-(5-{[5-(methoxymethyl)pyridin-2-yl]amino}-6-[(2-methylpropyl)[(1s,4s)-4-methoxycyclohexyl]amino]pyridin-3-yl)butanoic acid], for which the IC50 is 0.2 µM. The same measure for `CC(C)CN(c1ncc(C(C)CC(=O)O)cc1Nc1nc(C(F)(F)F)ns1)C1CCC(O)CC1` (stereo not drawn) [Example 59, (3RS)-3-{6-[(2-methylpropyl)[(1rs&,4rs&)-4-hydroxycyclohexyl]amino]-5-{[3-(trifluoromethyl)-1,2,4-thiadiazol-5-yl]amino}pyridin-3-yl}butanoic acid]: 0.0398 µM. The same measure for `CC(C)CN(c1ncc([C@H](C)CC(=O)O)cc1Nc1ccc(Cl)nn1)C1CCOCC1` [Example 60, (3R)-3-{5-[(6-chloropyridazin-3-yl)amino]-6-[(2-methylpropyl)(oxan-4-yl)amino]pyridin-3-yl}butanoic acid]: 0.0158 µM. To `Cc1cc(NC(=O)Nc2cc([C@H](C)CC(=O)O)cnc2N(CC(C)C)C2CC3(C2)CN(C(=O)OC(C)(C)C)C3)on1` [Example 61, (3R)-3-[6-({2-[(tert-butoxy)carbonyl]-2-azaspiro[3.3]heptan-6-yl}(2-methylpropyl)amino)-5-{[(3-methyl-1,2-oxazol-5-yl)carbamoyl]amino}pyridin-3-yl]butanoic acid] belongs 2 µM.
